Source: paper PMC12136788
This is one part of the list.

T1: UNK ZnF1-3 (human, UniProt Q9C0B0 31-174)
T1 sequence: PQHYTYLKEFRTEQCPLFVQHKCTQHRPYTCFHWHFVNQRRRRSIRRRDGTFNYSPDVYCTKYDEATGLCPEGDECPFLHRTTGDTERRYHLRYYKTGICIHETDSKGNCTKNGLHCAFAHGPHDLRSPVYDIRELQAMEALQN

B1: 40942872_40943970_480_3pUTR_ENSMUSG00000001627_ENSMUST00000001672|mouse|control|control (ssRNA)
RNA: GGGAGUUCUACAGUCCGACGAUCCUUCAAGAGCUGCCUGUCUUGUCUUCGCACUCUUAUCAAGGGUUAGGUCAAUUAAUCCCUUCAACUUGUACUCUAAGUCUUCUUGAGUUCCUUCCUCAUCAAGAACUUCUGGCCCAUCCUCAACAGAGGAUUGAGCAUCA
B2: chr4:133217533:133217534:-_ENSMUSG00000043257_ENSMUST00000062118|mus_mus|FALSE|FALSE (ssRNA)
RNA: GGGAGUUCUACAGUCCGACGAUCUACAUAGCAAGCAAGUUCUAGGACAGUCAGAGUUACACAGAGGGACCUUGUCUUAGCUCCCCUGACUACCCCUCCUCCAGAAAAAGGUAAUUCAUUGCAAAAGGAGUAUUUAGAUUUUCACAACAGAGGAUUGAGCAUCA
B3: chr2:179979976:179979977:-_ENSG00000187231_ENST00000335289|hu_hu|FALSE|FALSE (ssRNA)
RNA: GGGAGUUCUACAGUCCGACGAUCCCUGUAGCAACUGCCUGCCAUAGUCAUAAGUGCUCUGUGCAACAUCAACAAAUUUUCUAUGCUUUUCCAGCAAAACUUUCGUUUCUUGAGCAUCAUCGCCCAAUCUGAUGUGAGUCUUAACAACAGAGGAUUGAGCAUCA
B4: chr5:145543945:145543946:-_ENSG00000133706_ENST00000545646|hu_hu|hu_hu_hu_mus_True|18_18 (ssRNA)
RNA: GGGAGUUCUACAGUCCGACGAUCCUGAACGGCCAGUGGUGGGAAAUAAUCAAGCCAGUGCUCUGCUUCAGAAAACUUCACUAUGUCGUCAUCAGAGAGCCCAAGGGAUUUCAUAAUGCCCCACUGGUACUUAGAAGAUCCUGCCAACAGAGGAUUGAGCAUCA
B5: chr11:118888195:118888196:-_ENSG00000118181_ENST00000527673|hu_hu|motif|central (ssRNA)
RNA: GGGAGUUCUACAGUCCGACGAUCUUUAUAGUUGGGAACUUCCUUACAGAGUUUAUCAUAGGUAGCUUUGUCAAACAAGACGGAGUUAUUGAGCUUGUCCCGAACUUUGCCUUUGGACCACUUCUUCUUUUUGGCCUUGCCCCCCAACAGAGGAUUGAGCAUCA
B6: chr5:37680062:37680063:+_ENSMUSG00000029121_ENSMUST00000031004|mus_hu|mus_mus_mus_hu_False|18_58 (ssRNA)
RNA: GGGAGUUCUACAGUCCGACGAUCUUUGGGUGUAGCUGGUACCUCGUACACAGGACCGUCAUACAUGCCCCUGGAAACACUAUGCAAUCCAAAAACCUUAUUCCUGAUUUUGACGCGCUGGUAGAGAUGCUCCGGGAACGCCUUCAACAGAGGAUUGAGCAUCA
B7: chr12:1019172:1019173:+_ENSG00000060237_ENST00000535572|hu_hu|FALSE|FALSE (ssRNA)
RNA: GGGAGUUCUACAGUCCGACGAUCUAUAUGACAGUCACUGGCCAGGCAUCACGUUUGUUUCCUCAUUCUUUAGUCUUUGUCUUUCACCCAGCACACACCAUUCUUUUAAGUUGUCCAAUUUUGUUACAACACCCCCUCCUCACUCAACAGAGGAUUGAGCAUCA
B8: chr17:64801638:64801639:+_ENSG00000154229_ENST00000413366|hu_mus|hu_hu_hu_mus_False|1_18 (ssRNA)
RNA: GGGAGUUCUACAGUCCGACGAUCUAUAUAUAUAUAUACAUAUGUACACAUAUAUAGUAAAACCCUAGUUAAACGUGUAAAGUAGCCAUUCAUUUUUAAAAUUACAUCUACAUUAAAAAAGUAAUCUAUCUGAUAGAGUGCCCACAACAGAGGAUUGAGCAUCA
B9: 46579208_46579328_5643_3pUTR_ENSG00000111371_ENST00000398637|human|control|control (ssRNA)
RNA: GGGAGUUCUACAGUCCGACGAUCUUCUCAACAGGGUCUGUAACUGUAAAAAAGGAAAGUGGGUGGAGAGGUUUUUUUUUCCCCCUUUUUUCUUGUUUUCUAACCUCCCAGCUUAUUCCUGGAGAGUUAAAACACAGUUACUAGCAACAGAGGAUUGAGCAUCA
B10: chr2:216981417:216981418:+_ENSG00000079246_ENST00000392132|hu_hu|hu_hu_hu_mus_True|8_18 (ssRNA)
RNA: GGGAGUUCUACAGUCCGACGAUCCUGAUACUGGUCCUUGCCAGCAAGGGCAUUAUCAGUGCCAUCUGUGCCAUAGAGGACUAACGCAAUCUCAUCUUUGCUCUCCGAAAAUACCUGUCGCUGUACAAACAUGGUUAUCACUUUCAACAGAGGAUUGAGCAUCA
B11: chr6:38652254:38652255:-_ENSG00000124767_ENST00000373365|hu_hu|hu_hu_hu_mus_False|58_68 (ssRNA)
RNA: GGGAGUUCUACAGUCCGACGAUCCGAGAACUUCAUAGCAGGGAAGUCAAGCUUCUGCAGGAGGGUCAUUCCAAGAACUCUAGUAUAAAAAUCCAGGGACUUCUUAGGAUCCUUAAUUCUUAGCAUCGUUUGCUGCAGUAGAAACAACAGAGGAUUGAGCAUCA
B12: chr6:83880054:83880055:+_ENSMUSG00000030016_ENSMUST00000032088|mus_mus|FALSE|FALSE (ssRNA)
RNA: GGGAGUUCUACAGUCCGACGAUCUAUUCUUGGAGAUGCUGCAUAAUAAUCAUUCAUCAUAGAAGGGGUUGGCAGUCUCUUCAUUUUCUGGGCACCAGCUUGUGUAAACUUUGGUAGCCACGAAGCUUUCACAAUCCCAAAGGGCAACAGAGGAUUGAGCAUCA
B13: chr17:60770872:60770873:+_ENSG00000011028_ENST00000303375|hu_hu|hu_hu_hu_mus_True|28_48 (ssRNA)
RNA: GGGAGUUCUACAGUCCGACGAUCUCUUUAAAAAAAAAAAAAAAAAGACAAACAAUAAUAGCACAUUUCGAGAAUCAAGAACUACAAAGAAAGGGCCGCUUUGAGUUGUCCAUGUUCUCGUCCUGCACUGGGACACGGGGACUGCAACAGAGGAUUGAGCAUCA
B14: chrX:101156880:101156881:-_ENSMUSG00000056537_ENSMUST00000070705|mus_hu|motif|central (ssRNA)
RNA: GGGAGUUCUACAGUCCGACGAUCAGGAAAACUUUAAAUUCUUCAGUUUUCUUUACUCCUCCCAUAUUUCACUUCCUGCCGGAAUCCAAGUUAAAUUAUACAAUUUCCACUGGUCUUCAACACGGUUUAAUUCUGCACUGUCCUCAACAGAGGAUUGAGCAUCA
B15: chr9:50470998:50470999:-_ENSMUSG00000032064_ENSMUST00000117646|mus_mus|FALSE|FALSE (ssRNA)
RNA: GGGAGUUCUACAGUCCGACGAUCUAGGCAGUUAAAACAGGUUAUUACAUUGAUCAUCGGAAACUUCUGGCAUAACAGUCUAUGAAAACAUUGUAAAACAGAAUACAUGGUAAGAAUCUCUGAAAGCAGUGGUCACAAACACCCCAACAGAGGAUUGAGCAUCA
B16: chr16:45382771:45382772:-_ENSMUSG00000022661_ENSMUST00000163230|mus_mus|mus_mus_mus_hu_True|78_98 (ssRNA)
RNA: GGGAGUUCUACAGUCCGACGAUCCUGGGUCAUGUUAUGGGCCCAAUGGACAGGGAGAGCAUGCUUUUCAAAAAAUGUGAGCUAUUGUCUAAGACUAACAAUAUUUAUCUAGCUAUAAAAAUAAGUUAAAUGAAUAAGUUAAGACAACAGAGGAUUGAGCAUCA
B17: chr1:88243738:88243739:-_ENSMUSG00000026234_ENSMUST00000027438|mus_mus|FALSE|FALSE (ssRNA)
RNA: GGGAGUUCUACAGUCCGACGAUCCAUGAGUUCAAUCCCCAGUAAUCACAUGGUGGCUCUCAAUAAUCUGUAAUGGGAUUCUAUGCCCUCUUCUGGUGUGUCUGAAGACAGCUACAGUGUACUCAUAUACAUAAAAUAAAAAUCCAACAGAGGAUUGAGCAUCA
B18: 132373464_132384851_235_CDS_ENSG00000081307_ENST00000264991|human|control|control (ssRNA)
RNA: GGGAGUUCUACAGUCCGACGAUCUGCUACGGCAAAGGUACGGAUUUUCUCAUAGUCGCUUACAAUUCCCAUUCGUUUCAAUGCCAUCAAGCGGCUGGUGGUGGGUAGCUGCUCUUUUCCCAGAGGGCUUACCACAGCCAAAGGCAACAGAGGAUUGAGCAUCA
B19: chr12:125396312:125396313:-_ENSG00000150991_ENST00000546120|hu_mus|FALSE|FALSE (ssRNA)
RNA: GGGAGUUCUACAGUCCGACGAUCGAUCUGCAUGCCACCUCUGAGGCGAAGGACCAGGUGCAGGGUGGACUCUUUCUGGAUGUUGUAGUCUGACAGGGUGCGGCCAUCUUCCAGCUGCUUGCCUGCAAAGAUCAGCCUCUGCUGCAACAGAGGAUUGAGCAUCA
B20: 123718901_123719873_1099_CDS_ENSG00000107672_ENST00000369023|human|control|control (ssRNA)
RNA: GGGAGUUCUACAGUCCGACGAUCAAUCUCAAAGGUCUUCACAAUCUCCUCCCAGUCACGGUAACUCAAAGCUAUAAUUCCUUGAUUUCUAACUUGUGUGUUAUGUUCAAAUCCCUCAUUUUCUUCAUUAAUACUAACAGGCUCCAACAGAGGAUUGAGCAUCA
B21: chr15:59387643:59387644:+_ENSG00000157450_ENST00000557998|hu_hu|FALSE|FALSE (ssRNA)
RNA: GGGAGUUCUACAGUCCGACGAUCAAGGAUGGUAUUUAACUCAGAACUCCAUAUAGUAAAUAUACAGCAGCCAUUUUGUCCUAAUUAAGGAAUGUCUUAAUACACAAUAUUAUCAUUUUCUAGAGGAUCUUUAUACAUUAAACUCAACAGAGGAUUGAGCAUCA
B22: chr14:102446093:102446094:+_ENSG00000197102_ENST00000360184|hu_hu|FALSE|FALSE (ssRNA)
RNA: GGGAGUUCUACAGUCCGACGAUCCUCCGGAAUUUCAAUAUUUUGCUGCAAGUGAAGGAGUCCCAUUUCGAGUUCUGCAAUCUUCUUUUCAACUGAAGGAGCCAUUUUAUCACCAUCCCUGUCUGCCUUGCCAGACUCUCUAAUCAACAGAGGAUUGAGCAUCA

What follows are binders tested against T1, UNK ZnF1-3 (assay: nsRBNS (natural sequence RNA bind-n-seq); RBNS binding buffer (assumed for nsRBNS): 25 mM Tris pH 7.5, 150 mM KCl, 3 mM MgCl2, 0.01% Triton X-100, 500 ug/ml BSA, 20 U/ml SUPERase-In, 4 C; UNK is unkempt and MSI1 is Musashi-1; names of the RNAs are library labels; protein concentration not given here; high values mean tight binding).

Binder	binding signal [enrichment R]
B1	0.529
B2	1.06
B3	0.93
B4	0.897
B5	0.694
B6	0.837
B7	0.861
B8	1.15
B9	1.04
B10	0.769
B11	1.09
B12	0.833
B13	2.6
B14	0.725
B15	1.25
B16	1.44
B17	1.74
B18	0.652
B19	1.01
B20	1.02
B21	0.989
B22	1.1
